Source: patent US20250297021A1 (SHANDONG SIMCERE BIOPHARMACEUTICAL CO NO 1, published 2025)
Numbering of substitutions follows the chain as printed.

T1: BCMA expressed endogenously on U266 and H929 cells (UniProt Q02223 1-184, limits assumed)
T1 construct: whole, on cells; The cell line (U266 or H929) is named under assay in each row; also called B cell maturation antigen; CD269
T1 sequence (looked up): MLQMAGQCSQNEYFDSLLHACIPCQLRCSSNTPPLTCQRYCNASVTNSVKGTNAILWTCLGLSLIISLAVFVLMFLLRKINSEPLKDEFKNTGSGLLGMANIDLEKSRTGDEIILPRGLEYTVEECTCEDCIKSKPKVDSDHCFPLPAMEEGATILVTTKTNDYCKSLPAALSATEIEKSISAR

T2: human BCMA-His protein (human, UniProt Q02223 1-54)
T2 construct: Analyte in the SPR assay; also called human BCMA protein; BCMA antigen protein; not shown: His tag
T2 sequence (looked up): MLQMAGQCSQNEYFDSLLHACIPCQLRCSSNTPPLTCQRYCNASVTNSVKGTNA

B1: BCMA-04 VL2VH3a (Fc fusion)
scFv: EVQLVQSGAEVKKPGSSVKVSCKASGYSFTSYGISWVRQAPGQGLEWMGEIYPRDQITYYNEKFKGRVTLTADKSTSTAYMELSSLRSEDTAVYYCARHDYYYVNSVSAMDYWGQGTTVTVSSGGGGSGGGGSGGGGSDIQMTQSPSSLSASVGDRVTITCKSSQSLLYSSNQKNYLAWYQQKPGKSPKLLIYWASTRYSGVPSRFSGSGSGTDFTLTISSLQPEDFATYYCQQYYIYPWTFGGGTKVEIK[human IgG1 Fc with C220S (EU numbers) not spelt out]
B2: BCMA-mAb04 (Fc fusion)
scFv: QVQLQQSGAELARPGASVDLSCKASGYSFTSYGISWVKLRTGQGLEWIGEIYPRDDITYYNEKFKGKTTLTADKSSSTAYMELRSLTSEDSAVYFCARHDYYYVNSVSAMDYWGQGTSVTVSSGGGGSGGGGSGGGGSDIVMSQSPSSLAVSVGEKVTMSCKSSQSLLYSSNQKNYLAWYQQKPGQSPKLLIYWASTRYSGVPDRFTGSGSGTDFTLTVSSVRAEDLALYYCQQYYIYPWTFGGGTKLEIK[human IgG1 Fc with C220S (EU numbers) not spelt out]
notes: human-mouse chimeric scFv-Fc
B3: BCMA-02 VL3VH8 (Fc fusion)
scFv: EVQLVESGGGVVQPGRSLRLSCASNAYEFPSYDMSWVRQAPGKGLELVAAINSDGGITYYPDTMERRFTISRDNTKKTLYLQMSSLRAEDTAVYYCARHGYGGGAYVLDYWGQGTTVTVSSGGGGSGGGGSGGGGSDIQMTQSPSSVSASVGDRVTITCKASQNVGTAVAWYQQKPGKSPKVLIYSASSRYTGVPSRFSGSGSGTDFTLTISSLQPEDFADYYCQQYSNYHLTFGQGTKLEIK[human IgG1 Fc with C220S (EU numbers) not spelt out]
notes: humanized scFv-Fc
B4: BCMA-02 VL3VH9 (Fc fusion)
scFv: B3 scFv with A23E
notes: humanized scFv-Fc
B5: BCMA-02 VL4VH8 (Fc fusion)
scFv: EVQLVESGGGVVQPGRSLRLSCASNAYEFPSYDMSWVRQAPGKGLELVAAINSDGGITYYPDTMERRFTISRDNTKKTLYLQMSSLRAEDTAVYYCARHGYGGGAYVLDYWGQGTTVTVSSGGGGSGGGGSGGGGSDIVMTQSPDSLAVSLGERATINCKASQNVGTAVAWYQQKPGQSPKVLIYSASSRYTGVPDRFSGSGSGTDFTLTISSLQAEDVAVYYCQQYSNYHLTFGQGTKLEIK[human IgG1 Fc with C220S (EU numbers) not spelt out]
notes: humanized scFv-Fc
B6: BCMA-02 VL4VH9 (Fc fusion)
scFv: B5 scFv with A23E
notes: humanized scFv-Fc
B7: BCMA-mAb02 (Fc fusion)
scFv: EVQLVESGGDLVQPGESLKLSCESNAYEFPSYDMSWVRKTPEKRLELVAAINSDGGITYYPDTMERRFIISRDNTKKTLYLQMSSLRSEDTALYYCARHGYGGGAYVLDYWGQGTSVTVSSGGGGSGGGGSGGGGSDIVMTQSQKFMSTTVGDRVRITCKASQNVGTAVAWYQQKPGQSPKVLIYSASSRYTGVPDRFTGSGSGTDFTLTINNMQSEDLADYFCQQYSNYHLTFGTGTKLELK[human IgG1 Fc with C220S (EU numbers) not spelt out]
notes: human-mouse chimeric scFv-Fc
B8: BCMA-05 VL2VH2 (Fc fusion)
scFv: EGQMVQSGAEVKKPGSSVKVSCKASGYMFTDHTFHWVRQAPGQGLEWMGYIYPRDDNTKYNEKFKGRVTITADKSTSTAYMELSSLRSEDTAVYYCARAGYYGSSHAMDYWGQGTTVTVSSGGGGSGGGGSGGGGSDIQMTQSPSSLSASVGDRVTITCKASQDVSTAVAWYQQKPGKSPRLLIYSASSRYTGVPDRFSGSGSGTDFTFTISSLQPEDIATYYCQQLYSTPWTFGGGTKVEIK[human IgG1 Fc with C220S (EU numbers) not spelt out]
notes: humanized scFv-Fc
B9: BCMA-05 VL2VH3 (Fc fusion)
scFv: B8 scFv with G2V, M4L, V37M
notes: humanized scFv-Fc
B10: BCMA-05 VL2VH4 (Fc fusion)
scFv: B8 scFv with G2V, M4L, I70L
notes: humanized scFv-Fc
B11: BCMA-06 VL2aVH2 (Fc fusion)
scFv: EVKLVESGGGLVQPGGSLRLSCAASGIDFSRYWMSWVRQAPGKGLEWVAEINPDSSTINYAPSLKDRFTISRDNAKNSLYLQMNSLRAEDTAVYYCAIFYYANYYAMDYWGQGTTVTVSSGGGGSGGGGSGGGGSDIVMTQSPDSLAVSLGERATINCKASQNVDTNVAWYQQKPGQSPKALIYSASYRFSGVPDRFSGSGSGTDFTLTISSLQAEDVAVYYCQQYNAYPFTFGQGTKLEIK[human IgG1 Fc with C220S (EU numbers) not spelt out]
B12: BCMA-06 VL2aVH1 (Fc fusion)
scFv: B11 scFv with K3Q
B13: BCMA-06 VL2aVH3 (Fc fusion)
scFv: B11 scFv with V5L, E6Q

biological target: T1, BCMA expressed endogenously on U266 and …; assay: FACS on U266 cells
Description: (§1) The desired cells were scale-up cultured in T-75 cell culture flasks to the logarithmic growth phase, and the cells were pipetted into a single cell suspension. After the cells were counted, the cells were centrifuged and the cell pellet was resuspended in FACS buffer (PBS+2% fetal calf serum) to 2×10⁶ cells per ml, and the suspension was added to the 96-well FACS reaction plate at 50 μl per well, then the sample to be tested of the chimeric antibody was added at 50 μl per well and the mixture was incubated at 4° C. for 1 h. The obtained mixture was centrifuged and washed 3 times with a PBS buffer. […] The obtained mixture was centrifuged and washed 3 times with a PBS buffer. 100 μl of the mixture was taken for detection and result analysis by FACS (FACS Canto™, purchased from BD Company). Data analysis was performed by software (FlowJo) to obtain the mean fluorescence intensity (MFI) of the cells. Then, a software (GraphPad Prism8) was used for analysis, data fitting and EC50 calculation. The results are shown in Table 10 and FIGS. 10A-10B, FIGS. 11A-11B, and FIGS. 12A-12B. All seven chimeric antibodies bind to three types of BCMA-expressing endogenous cells.
(§2) The specific method was the same as that in Example 5 (C). First, the binding of humanized antibodies to U266 cells was detected. Based on the results, some humanized antibodies were selected and tested for binding to H929 cells. The remaining humanized antibodies were not tested for binding to H929 cells by FACS (indicated by “/” in the table). All humanized antibodies bind to U266 cells, and all humanized antibodies that bind to the H929 cell in the test bind to H929 cells.

| Binder | EC50 | Maximum mean fluorescence intensity |
| --- | --- | --- |
| B1 | 16.2 nM | 3720 |
| B2 | 47.6 nM | 2980 |
| B3 | 21.6 nM | 2730 |
| B4 | 42.5 nM | 2760 |
| B5 | 34.2 nM | 2730 |
| B6 | 51 nM | 2620 |
| B7 | 17.6 nM | 2890 |
| B8 | 18.1 nM | 2430 |
| B9 | 20.1 nM | 2470 |
| B10 | 25 nM | 2210 |
| B11 | 14.4 nM | 993 |
| B12 | 47.1 nM | 1300 |
| B13 | 67.6 nM | 2570 |

biological target: T1, BCMA expressed endogenously on U266 and …; assay: FACS on H929 cells
Description: as §1, §2

| Binder | EC50 | Maximum mean fluorescence intensity |
| --- | --- | --- |
| B1 | 11 nM | 8850 |
| B2 | 27.2 nM | 8640 |
| B3 | 16.4 nM | 14100 |
| B4 | 20.6 nM | 14600 |
| B5 | 16.4 nM | 15300 |
| B6 | 18.6 nM | 15200 |
| B7 | 14.9 nM | 14300 |
| B8 | 9.07 nM | 14700 |
| B9 | 9.72 nM | 14700 |
| B10 | 11.2 nM | 13000 |
| B11 | 29.6 nM | 17200 |
| B12 | 32.8 nM | 16800 |
| B13 | 17.8 nM | 20800 |

biological target: T2, human BCMA-His protein; assay: SPR, antibody captured on Protein A chip, BCMA-His as analyte
Description: A sample buffer and a running buffer were HBS-EP+ (10 mM HEPES, 150 mM NaCl, 3 mM EDTA and 0.05% surfactant P20) (GE Healthcare; BR-1006-69). The flow-through cell was set to 25° C. The sample block was set to 16° C. Both were pretreated with the running buffer. In each cycle, an antibody to be tested was first captured with a Protein A chip, and then a single concentration of BCMA antigen protein was injected. The binding and dissociation processes of the antibody and the antigen protein were recorded, and finally Glycine pH 1.5 (GE Helthcare; BR-1003-54) was used to complete chip regeneration. Binding was measured by injecting different concentrations of BCMA-His in solution for 240 s with a flow rate of 30 μL/min. The concentration started from 200 nM (see the detailed results for the actual concentration in the test) and was diluted at 1:1, making a total of 5 concentrations. The dissociation phase was monitored for up to 600 s and was triggered by switching from sample solution to running buffer. The surface was regenerated by washing with a 10 mM glycine solution (pH 1.5) for 30 s at a flow rate of 30 μL/min. Bulk refractive index difference was corrected by subtracting the response obtained from the goat anti-human Fc surface. Blank injection was also subtracted (=double reference). For calculation of apparent KD and other kinetic parameters, Langmuir 1:1 model was used. The binding rate (Kₐ), dissociation rate (Kdis) and binding affinity (KD) of the chimeric antibodies to human BCMA protein are shown in the table, wherein REGN5459-hlgG1 and HPN217-hHcAb antibodies were used as controls.
The specific method was the same as that in Example 6. The binding rate (Kₐ), dissociation rate (Kdis) and binding affinity (KD) of the humanized antibodies to human BCMA protein are shown Table 38, wherein REGN5459-hlgG1 antibody is used as a control.

| Binder | Kd | koff | kon |
| --- | --- | --- | --- |
| B1 | 0.124 nM | 0.000114 s⁻¹ | 926000 M⁻¹ s⁻¹ |
| B2 | 0.097 nM | 0.000104 s⁻¹ | 1.07e+06 M⁻¹ s⁻¹ |
| B3 | 0.412 nM | 0.000356 s⁻¹ | 863000 M⁻¹ s⁻¹ |
| B4 | 0.415 nM | 0.000356 s⁻¹ | 858000 M⁻¹ s⁻¹ |
| B5 | 0.314 nM | 0.00034 s⁻¹ | 1.08e+06 M⁻¹ s⁻¹ |
| B6 | 0.307 nM | 0.000334 s⁻¹ | 1.09e+06 M⁻¹ s⁻¹ |
| B7 | 0.236 nM | 0.000272 s⁻¹ | 1.16e+06 M⁻¹ s⁻¹ |
